# Data reported in PubChem BioAssay AID624417 (National Center for Advancing Translational Sciences (NCATS), 2012).
# In all, about 410,000 compounds went through this assay and about 6,400 (1.6%) were called active. Inconclusive results, whose numbers are uncertain, are shown with a selection of clear calls. Calls follow the shape of the dose curve; as a rule, active = well fitted inhibition curve with a large enough effect; inconclusive = small, poorly fitted or top-dose-only effect; inactive = no such curve, though single readings can be large or run the other way. Potencies of inconclusive entries are left out as doubtful fits.
# Target: Glucagon-like peptide 1 receptor (Homo sapiens) (UniProt P43220)
# Sequence of UniProt P43220 (P43220 whole entry, looked up): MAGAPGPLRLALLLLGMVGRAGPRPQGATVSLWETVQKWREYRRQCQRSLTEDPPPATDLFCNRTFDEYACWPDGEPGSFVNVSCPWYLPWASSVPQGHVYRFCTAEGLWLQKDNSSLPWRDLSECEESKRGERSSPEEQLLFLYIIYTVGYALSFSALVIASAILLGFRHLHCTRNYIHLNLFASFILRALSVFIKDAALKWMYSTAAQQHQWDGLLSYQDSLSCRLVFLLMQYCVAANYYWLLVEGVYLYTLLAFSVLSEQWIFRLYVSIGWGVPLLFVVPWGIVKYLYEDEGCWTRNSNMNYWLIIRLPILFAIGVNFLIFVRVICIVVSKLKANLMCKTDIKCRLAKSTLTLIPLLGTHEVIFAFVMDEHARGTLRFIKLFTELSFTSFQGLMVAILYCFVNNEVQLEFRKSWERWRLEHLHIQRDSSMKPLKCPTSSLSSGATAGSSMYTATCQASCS
# Experiment: qHTS of GLP-1 Receptor Inverse Agonists (Inhibition Mode); also: nearly all actives have a fitted effect of over 55% in size
# Settings: HEK293 GLP-1R CRE-luciferase, luminescence, 24 h, GLP-1R form is constitutively active; activity change, negative = inhibition: at 38.3 µM (top of the series) unless noted
# Method in brief: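 Cells are plated, allowed 12 hours at 37 deg C, then treated with compounds for 24 hr before luciferase detection reagent is added and luminescence is read after 12 min at room temperature. The HEK293 line carries constitutively active GLP-1R with a cAMP-responsive reporter.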
# % is scaled to controls: 0 for no effect and ±100 for the full control effect; potency is read from the fitted curve at half-maximal effect; tags tell the direction and shape of the fitted curve.
SMILES,Potency,"activity change, negative = inhibition"
Cc1noc(C)c1COc1ccc(C(=O)OCC(=O)N2c3ccccc3NC(=O)C2(C)C)cc1,"inconclusive [inhibitor, single point]",–
O=C1C=CC(O)C2(CO)OC12 (stereo not drawn),"inconclusive [inhibitor, single point]",–
COc1ccc(-n2c(C)nc3cc(C(=O)N4CCOCC4)ccc32)cc1,–,inactive: 9.75%
CCc1nc2ccc(C(=O)N(CC)CCN(C)C)cn2c1N(C)Cc1ccc(OC)cc1,"inconclusive [inhibitor, single point]",–
COc1ccc2nc(NC(=O)c3cccc(-c4cc5ccccc5oc4=O)c3)sc2c1,"inconclusive [inhibitor, single point]",–
COc1ccc(CN2C(=O)CCC2(C)c2nnnn2-c2c(C)cccc2C)cc1OC (stereo not drawn),–,inactive: 18.8%
CCc1ccc(C(=O)Cn2ncc(Cl)c(Cl)c2=O)cc1,"inconclusive [inhibitor, single point]",–
O=C(CN1CCN(C/C=C/c2ccccc2)CC1)Nc1ccc(F)cc1F,"inconclusive [inhibitor, partial curve, poor fit]",–
CC(=O)C1=C(c2ccc(C)c(C)c2)N(C(C)=O)n2c(nnc2-c2ccc(Cl)cc2)S1,–,inactive: 14%
O=C(NCc1cccc(Cl)c1)c1ccc(-c2ccc(F)c(F)c2)c2ccoc12,"inconclusive [inhibitor, single point]",–
CC(OC(=O)C1CCN(S(=O)(=O)c2ccccc2C(F)(F)F)CC1)C(=O)N(C)Cc1ccccc1 (stereo not drawn),"inconclusive [inhibitor, single point]",–
COc1cc(OC)cc(C(=O)Nc2nc(CC(=O)NC(C)c3ccccc3)cs2)c1 (stereo not drawn),"inconclusive [inhibitor, partial curve, poor fit]",–
CCCCCCSc1nsc(NC(=O)CC(C)C)n1,"inconclusive [inhibitor, partial curve, poor fit]",–
O=C(O)CSc1cc(NS(=O)(=O)c2ccc(Br)cc2)c2ccccc2c1O,"inconclusive [inhibitor, single point]",–
CCN1CCN(S(=O)(=O)c2ccc(Cl)c(C(=O)Nc3ccc(OC(F)F)cc3)c2)CC1,"inconclusive [inhibitor, single point]",–
O=C(C1CCN(Cc2cccs2)CC1)N1CCN(Cc2ccc3c(c2)OCO3)CC1,"inconclusive [inhibitor, single point]",–
O=S(=O)(c1cc(Cl)ccc1Cl)N1CCN(Cc2ccco2)CC1,"inconclusive [inhibitor, single point]",–
O=c1c2ccccc2[nH]c(=S)n1CCN1CCc2ccccc2C1,"inconclusive [inhibitor, partial curve, poor fit]",–
COc1cccc(C(O)c2ncc(-c3cccc4ccccc34)[nH]2)c1 (stereo not drawn),"inconclusive [inhibitor, single point]",–
CC(C)(C)c1ccc(C(=O)NNc2ccc(F)cc2F)cc1,"inconclusive [inhibitor, full curve, poor fit]",–
Cc1ccc(NC(=O)Cn2c(=O)oc3cc(S(=O)(=O)NCc4ccccc4)ccc32)cc1,"inconclusive [inhibitor, single point]",–

SMILES,Potency,"activity change, negative = inhibition"
CCOC(=O)c1cc(-c2ccccc2)n(CC(=O)Nc2ccc(OC)c(OC)c2)c1C,"inconclusive [inhibitor, partial curve, poor fit]",–
COc1ccc(C2CCCN2CC(O)COc2ccccc2C(C)C)cc1 (stereo not drawn),"inconclusive [inhibitor, partial curve, poor fit]",–
COc1ccc(NC(=O)C(c2ccccc2)n2c(=O)c(-c3ccco3)nc3ccccc32)cc1 (stereo not drawn),"inconclusive [inhibitor, single point]",–
O=C(Nc1ccc(S(=O)(=O)N2CCCCC2)cc1)c1ccc(F)cc1,"inconclusive [inhibitor, partial curve, poor fit]",–
O=C1NC2(CCCc3ccccc32)C(=O)N1CCOc1ccc(Br)cc1 (stereo not drawn),"inconclusive [inhibitor, single point]",–
O=C(CN1C(=O)/C(=C/c2ccccc2)SC1=S)N1CCN(CCc2ccccn2)CC1,"inconclusive [inhibitor, partial curve]",–
CCC(=O)C1=C(c2cccc(OC)c2)N(C(=O)CC)n2c(nnc2C2CCCCC2)S1,"inconclusive [inhibitor, partial curve]",–
Cc1cc(S(=O)(=O)NCCC2=CCCCC2)ccc1Br,"inconclusive [inhibitor, single point]",–
Cc1ccc2sc(N3CCN(C(=O)C4=COCCO4)CC3)nc2c1C,–,inactive: 9.38%
COc1ccc(NC(=O)CCCc2ccc(OC)c(C)c2)cc1,"inconclusive [inhibitor, single point]",–
C/C(CC(=O)Nc1ccc(C)c(Cl)c1)=N\NC(=O)C1CCCCC1,"inconclusive [inhibitor, single point]",–
O=C(Nc1ccccc1)c1ccc(Br)o1,–,inactive: 13.5%
Cc1ccc(N(CC(O)CON=C2c3ccccc3-c3ccccc32)S(C)(=O)=O)cc1 (stereo not drawn),"inconclusive [inhibitor, single point]",–
COc1ccc2nc(C)cc(Nc3ccccc3O)c2c1,"inconclusive [inhibitor, partial curve, poor fit]",–
CCOc1cccc(C2c3c(-c4cc(C)ccc4O)n[nH]c3C(=O)N2Cc2ccco2)c1 (stereo not drawn),"inconclusive [inhibitor, single point]",–
CCOC(=O)C1CCN(C(=O)c2ccc3c(=O)n4nc(Nc5cc(C)ccc5C)sc4nc3c2)CC1,"inconclusive [inhibitor, single point]",–
CCOC(=O)C(C)NC(=O)c1c(C)oc2ncn(CC(C)C)c(=O)c12 (stereo not drawn),–,inactive: -20.7%
COc1cc(OC)nc(Nc2nc(C(N)Cc3ccc(C(F)(F)F)cc3)cs2)n1 (stereo not drawn),"inconclusive [inhibitor, partial curve, poor fit]",–
CCOC(=O)C1CCN(C(=O)Cc2ccc(-c3ccccc3)cc2)CC1,"inconclusive [inhibitor, single point]",–
CC1CCN(C(=O)c2ccc(-c3ccccc3Cl)o2)CC1,"inconclusive [inhibitor, partial curve, poor fit]",–
COc1ccc(OC)c(CCNC(=O)c2csc3c2CCCCC3)c1,"inconclusive [inhibitor, partial curve]",–

SMILES,Potency,"activity change, negative = inhibition"
Cc1cccc(CN2CCc3c([nH]c4ccccc34)C2)c1,"inconclusive [inhibitor, partial curve, poor fit]",–
Cc1cc(C)cc(NC(=S)/C(=C(\[O-])c2ccc(Cl)cc2Cl)[n+]2ccccc2)c1,"inconclusive [inhibitor, partial curve, poor fit]",–
CCC[N+]1(CC#CCC(c2ccccc2)c2ccccc2)CCCCC1,"inconclusive [inhibitor, full curve, poor fit]",–
Cc1cccc(N=C2NC(=O)/C(=C/c3cccn3C)S2)c1C,"inconclusive [inhibitor, single point]",–
CN(Cc1c(C(=O)N/N=C/c2cccc(O)c2)nnn1-c1nonc1N)c1ccccc1,"inconclusive [inhibitor, partial curve, poor fit]",–
CCc1ccc(NCc2nc(-c3ccccc3)no2)cc1,"inconclusive [inhibitor, single point]",–
Fc1cccc(CSc2nc3ccncc3[nH]2)c1,–,inactive: 11.1%
Cc1ccc(CN(Cc2ccco2)C(=O)COc2ccc(C(C)C)cc2)cc1,"inconclusive [inhibitor, partial curve, poor fit]",–
CC1=C(C(=O)OCC(C)C)C(c2cc3c(cc2Br)OCO3)NC(=O)N1C (stereo not drawn),"inconclusive [inhibitor, single point]",–
CCCC(C)NC(=O)Cn1c(=O)c2c(ncn2CCC(C)C)n(Cc2ccccc2)c1=O (stereo not drawn),"inconclusive [inhibitor, partial curve, poor fit]",–
CCOc1ccc(CCNC(=O)COC(=O)c2ccncc2)cc1OCC,–,inactive: 38.6%
O=S(=O)(NCC(c1cccnc1)N1CCN(c2ccc(F)cc2)CC1)c1cccs1 (stereo not drawn),"inconclusive [inhibitor, single point]",–
COc1ccc(NC2=NCC(Cc3ccc(Br)cc3)S2)cc1 (stereo not drawn),"inconclusive [inhibitor, single point]",–
O=C(CCC(=O)N1CCN(c2cccc(Cl)c2)CC1)c1cccs1,"inconclusive [inhibitor, single point]",–
Cc1nc2ccccc2nc(C)c1=NOCc1cccc(Cl)c1,"inconclusive [inhibitor, partial curve, poor fit]",–
O=C(N/N=C\c1cccc(Br)c1)c1ccccc1-n1cccc1,"inconclusive [inhibitor, partial curve, poor fit]",–
CCN(CC)c1ccc(NC(=O)c2ccc(Br)o2)c(C)c1,–,inactive: 0%
Cc1ccc2nc(-c3ccccc3)c(Cc3ccccc3C(F)(F)F)n2c1,"inconclusive [inhibitor, single point]",–
Cc1cc(C)cc(NC(=O)CN2C(=O)c3ccccc3Sc3ncccc32)c1,–,inactive: -14.9%
NCc1ccccc1CS(=O)(=O)N1CCOCC1,–,inactive: 15.9%
CC(C)Cc1nc(Nc2ccc(S(=O)(=O)N3CCCC3)cc2)c2nnn(Cc3ccccc3)c2n1,"inconclusive [inhibitor, partial curve, poor fit]",–
